According to PubChem BioAssay AID686978 (National Center for Advancing Translational Sciences (NCATS), 2013):
Several values for one entry are separate records, joined by “and”; a condition that tells them apart may be missing. Identical values can stand only once. The campaign covered roughly 420,000 compounds. About 64,000 (15%) were called active. The shares of active, inactive and inconclusive entries below differ from those in the screen. Calls come from the whole dose curve; as a rule, active = well fitted inhibition curve with a large enough effect; inconclusive = small, poorly fitted or top-dose-only effect; inactive = flat fitted curve, though single readings scatter. A potency beside an inconclusive call is a rough fit, not a confirmed value.

Experiment: qHTS for Inhibitors of human tyrosyl-DNA phosphodiesterase 1 (TDP1): qHTS in cells in absence of CPT; note: nearly all actives have a fitted effect of over 55% in size
Conditions: DT40 Tdp1-/- hTDP1 cells, no CPT, ATP luminescence, 48 h; activity change, negative = growth inhibition: at 46.2 µM (top of the series) unless noted
Procedure, shortened: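 Compound effects on proliferation are scored in DT40 Tdp1-/-;hTDP1 cells in the absence of CPT. ATP levels (CellTiter-Glo luminescence) are recorded after a ≥48 hr, 37 °C incubation.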
% is set by controls: 0 for no effect and ±100 for the full control effect; potency is the fitted concentration of half-maximal effect; tags give direction and shape of the fitted curve.

Row | SMILES | Potency | activity change, negative = growth inhibition
1 | O=C(Nc1cccn(Cc2c(Cl)cccc2Cl)c1=O)c1c(Cl)cccc1Cl | inconclusive: 20.6 µM [inhibitor, partial curve] | –
2 | CC(=O)Nc1cccc(Nc2ccc(C#N)cc2)c1 | inconclusive: 20.6 µM [inhibitor, single point] | –
3 | O=C(CN1CCN(S(=O)(=O)c2ccc(F)c(Cl)c2)CC1)N1CCc2ccccc2C1 | active: 16.4 µM | –
4 | Cc1ccc(S(=O)(=O)Oc2ccccc2/C=N/NC(N)=S)cc1 | active: 6.51 µM | –
5 | C(=C\c1nc(-c2ccccc2)no1)/c1ccccc1 | inactive | –
6 | COc1ccc(/C=N\NC(=O)c2ccccc2OC)cc1COc1ccccc1C | inconclusive: 16.4 µM [inhibitor, single point] | –
7 | CC(C)[C@@H]1COC(c2cccc(C3=N[C@H](C(C)C)CO3)n2)=N1 | inactive | –
8 | COc1ccc(S(=O)(=O)Nc2ccc3c(c2)OCO3)cc1 | inconclusive: 29.1 µM [inhibitor, single point] | –
9 | Cc1ccc(OCC(=O)N/N=C\c2cccn2C)c([N+](=O)[O-])c1 | – | inconclusive: -31.9% [inhibitor]
10 | Cc1ccc(SCC(=O)OC(C)C(=O)NCc2ccccc2)cc1C (configuration not stated) | inactive | –
11 | O=C(NCc1cccc(Br)c1)c1ccc(NC(=O)N2CCCCc3ccccc32)cc1 | inconclusive: 18.4 µM [inhibitor, partial curve, poor fit] | –
12 | CSc1sc(-c2ccnc(SCC(=O)C(C)(C)C)n2)c2c1C(=O)CC(C)(C)C2 | inconclusive: 8.2 µM [inhibitor, partial curve, poor fit] | –
13 | COc1cc(OC)c(C2=NOC(C(=O)N3CCCc4ccccc43)C2)cc1Cl (configuration not stated) | inconclusive: 18.4 µM [inhibitor, single point] | –
14 | CCOC(=O)C1=CCC(c2ccc(C#N)cc2)N(S(=O)(=O)c2ccc(C)cc2)C1 (configuration not stated) | active: 16.4 µM | –
15 | O=C(NCCN1C(=O)S/C(=C\c2ccc(Cl)c(Cl)c2)C1=O)c1ccc2c(c1)C(=O)N(Cc1ccncc1)C2=O | active: 11.6 µM | –
16 | Cc1ccc(-c2ccc(=O)n(CCC(=O)N3CCN(Cc4ccccc4)CC3)n2)cc1 | inconclusive: 29.1 µM [inhibitor, single point] | –
17 | O=C(NC1(N2CCOCC2)CC1)c1ccc(Cl)cc1 | inactive | –
18 | Cc1ccc(S(=O)(=O)c2nnn3c2nc(NCCc2ccccc2)c2sccc23)cc1 | inconclusive: 18.4 µM [inhibitor, single point] | –
19 | COC(=O)CSc1cc(C(F)(F)F)nc(-c2ccccn2)n1 | inactive | –
20 | CCC(NC(=O)NCc1cccnc1)(C(F)(F)F)C(F)(F)F | inactive | –
21 | CCc1ccc(OCCCCCn2ccnc2)cc1 | active: 18.4 µM | –
22 | Cc1cc(C(=O)NC2CC(C)(C)Cc3c2cnn3-c2ccccc2)n(C)n1 (configuration not stated) | inconclusive: 18.4 µM [inhibitor, single point] | –
23 | CCOC(=O)N1CCN(C(=O)Cn2nc(C)n3nc(-c4ccc(CC)cc4)cc3c2=O)CC1 | active: 20.6 µM | –
24 | Cc1ccccc1-c1ccc2ncnc(N3CCOCC3)c2c1 | inconclusive: 23.1 µM [inhibitor, partial curve] | –

Row | SMILES | Potency | activity change, negative = growth inhibition
25 | Cn1c(=O)c2c(nc(N3CCOCC3)n2CC(=O)C23CC4CC(CC(C4)C2)C3)n(C)c1=O | inconclusive: 23.1 µM [inhibitor, single point] | –
26 | O=S1(=O)CCOC[C@H](c2ccccc2)N1Cc1ccccc1 | inconclusive: 31.6 µM [inhibitor, single point] and inconclusive: 16.4 µM [inhibitor, single point] | –
27 | CCC(Cc1ccccc1)NC(=O)CN1C(=O)CSc2ncccc21 (configuration not stated) | inconclusive: 29.1 µM [inhibitor, single point] | –
28 | COCCN(C(=S)Nc1cccc(Cl)c1C)C(C)c1ccco1 (configuration not stated) | inconclusive: 29.1 µM [inhibitor, single point] | –
29 | O=c1c2[nH]c3ccc(F)cc3c2ncn1CCCn1ccnc1 | inactive | –
30 | Cc1ccc(S(=O)(=O)N2CCCC2CO)cc1 (configuration not stated) | inactive | –
31 | Cc1ccc(CNC(=O)c2c[nH]n3c(=O)c(Cc4ccc(Cl)cc4)c(C)nc23)cc1 | inconclusive: 25.9 µM [inhibitor, single point] | –
32 | COc1cc(OC)c(OC)cc1/C=C/c1nccc2ccccc12 | inconclusive: 35.5 µM [inhibitor, single point] | –
33 | CCC1SC(=NC(=O)c2ccc(Cl)c(Cl)c2)NC1=O (configuration not stated) | inconclusive: 36.6 µM [inhibitor, partial curve, poor fit] | –
34 | CCOC(=O)Cc1cccc(-c2cc(CCCCCCc3ccc(O[C@H]4O[C@H](COC(C)=O)[C@@H](OC(C)=O)[C@H](OC(C)=O)[C@@H]4OC(C)=O)c(-c4cccc(CC(=O)OCC)c4)c3)ccc2O[C@H]2O[C@H](COC(C)=O)[C@@H](OC(C)=O)[C@H](OC(C)=O)[C@@H]2OC(C)=O)c1 | inactive | –
35 | Cc1ccccc1C(=O)Nc1c(C)nc2ccccn2c1=O | inactive | –
36 | O=S(=O)(c1ccccc1)N(Cc1nc(-c2ccccc2)no1)C1CCCCC1 | active: 20.6 µM | –
37 | Cc1cc(Cl)cc2c1NC(=O)[C@]21[C@@H]2C(=O)N(Cc3ccccc3)C(=O)[C@@H]2[C@@H]2CCCN21 | inconclusive: 29.1 µM [inhibitor, single point] | –
38 | O=C(Nc1ccccc1C(=O)O)c1cc(S(=O)(=O)Nc2cccc(F)c2)ccc1Cl | inconclusive: 25.9 µM [inhibitor, single point] | –
39 | O=C(CN1C(=O)NC2(CCCCC2)C1=O)Nc1ccc2c(c1)CCC2 | inactive | –
40 | Cc1cc(C)c(S(=O)(=O)N2CCN(c3ccc([N+](=O)[O-])c(-n4nc(C)cc4C)c3)CC2)c(C)c1 | active: 20.6 µM | –
41 | Cn1c(=O)oc2cc(S(=O)(=O)N3CCCC(C(=O)NCCc4ccccc4)C3)ccc21 (configuration not stated) | inactive | –
42 | CCC(=O)Nc1ccc(N2CCN(C(=O)c3cccs3)CC2)cc1 | inactive | –
43 | O=C(c1cn(-c2ccccc2)nc1-c1ccc(F)cc1)N1CCOCC1 | inactive | –
44 | CN(CCOc1ccccc1)C(=O)C1CCC(=O)N(CCCN2CCCC2=O)C1 (configuration not stated) | inactive | –
45 | O=C(CNC(=S)NC(=O)c1ccc(Br)o1)c1ccccc1 | inconclusive: 29.1 µM [inhibitor, single point] | –
46 | OCc1nc2ccccc2n1CCCOc1ccc(Br)cc1 | active: 18.4 µM | –
47 | CCc1ccc(S(=O)(=O)c2cn(Cc3ccccc3F)c3cc(OC)c(OC)cc3c2=O)cc1 | inconclusive: 29.1 µM [inhibitor, single point] | –
48 | CCCCCCCCCCC[N+](C)(C)CC/C=C1/c2ccccc2Sc2ccc(Cl)cc21 | active: 2.59 µM | –

Row | SMILES | Potency | activity change, negative = growth inhibition
49 | Cc1ccc2c(c1)N(CCCC(=O)NCc1ccc3c(c1)OCO3)C(=O)CO2 | inactive | –
50 | CC(C)C(c1nnnn1Cc1ccc2c(c1)OCO2)N1CCN(C)CC1 (configuration not stated) | inactive | –
51 | CCOC(=O)c1cnc2c(ccc3ccccc32)c1NCCCN(C)C | inconclusive: 25.9 µM [inhibitor, single point] | –
52 | COc1ccc(NC(=O)Cn2c(=O)c(C)nc3ccccc32)cc1Cl | inactive | –
53 | O=C(NCCCN1CCOCC1)C(=O)N/N=C/c1ccccc1O | inconclusive: 18.4 µM [inhibitor, partial curve] | –
54 | c1ccc2c(c1)nc(N1CCOCC1)c1nncn12 | – | inconclusive: -32% [inhibitor]
55 | COc1ccc(C2c3ccc(O)cc3Oc3ncn4nc(-c5ccco5)nc4c32)cc1OC (configuration not stated) | – | inconclusive: -30.4% [inhibitor]
56 | CC1(C)NC(=O)N(CC(O)COc2ccc(N3C(=O)c4ccccc4C3=O)cc2)C1=O (configuration not stated) | inconclusive: 5.8 µM [inhibitor, single point] | –
57 | CCOc1ccc(NC(=O)C2CCCCN2S(=O)(=O)c2ccccc2)cc1 (configuration not stated) | inconclusive: 29.1 µM [inhibitor, single point] | –
58 | CCN(CC)Cc1csc(C(N)=O)c1 | inactive | –
59 | COc1ccc(NC(=O)CSc2nnc(NC(=O)NC3CCCCC3)s2)cc1OC | inconclusive: 20.6 µM [inhibitor, single point] | –
60 | O=C(NCCc1ccccc1)c1nn(-c2ccc(F)cc2)nc1CO | inactive | –
61 | Cc1cccc(CNC(=O)c2ccc3nc(Cc4ccccc4)oc3c2)c1 | active: 23.1 µM | –
62 | CC1CCN(S(=O)(=O)N2CCC(C(=O)NCCC3=CCCCC3)CC2)CC1 | inconclusive: 25.9 µM [inhibitor, single point] | –
63 | CCN(CC(=O)Nc1ccc([N+](=O)[O-])cc1OC)CC(=O)NC(C)(C)C | inconclusive: 18.4 µM [inhibitor, partial curve] | –
64 | CCOc1ccc(C2c3[nH]c4ccccc4c3CCN2C(=O)CSCc2ccc(F)cc2)cc1 (configuration not stated) | inconclusive: 29.1 µM [inhibitor, single point] | –
65 | O=c1[nH]c(/C(Cl)=C/c2c(F)cccc2Cl)nc2cc(Cl)ccc12 | inconclusive: 23.1 µM [inhibitor, single point] | –
66 | Cc1ccc(CCNC(=O)c2c3c(nc4ccccc24)C(=O)N(C2CCCCC2)C3)cc1 | active: 10.3 µM | –
67 | COc1cccc(NC(=O)CN(C)C(C)C(=O)NC(C)c2ccc(Cl)cc2Cl)c1 (configuration not stated) | active: 18.4 µM | –
68 | COc1ccc(C(C)=O)cc1CON=C1CSCc2ccccc21 | inconclusive: 29.1 µM [inhibitor, single point] | –
69 | CCc1nnc(NC(=O)CN2CCN(Cc3ccccc3Cl)CC2)s1 | inactive | –
70 | Cc1nc2ccc(S(=O)(=O)Nc3cccc(-c4nc5cccnc5s4)c3)cc2s1 | inactive | –
71 | COc1ccccc1-c1nc(SC)n[nH]1 | inactive | –
72 | COc1ccccc1N1CCN(C2CCCN(C(=O)c3cc(C)oc3C)C2)CC1 (configuration not stated) | inconclusive: 29.1 µM [inhibitor, single point] | –
